Test results from the supplement of paper PMC12217912.
The list shows a part of the results. The full chains were built here from the parent and the listed change. Values near 0.05 are background.

B1: TEV protease; numbered along this chain (parent)
chain: MGESLFKGPRDYNPISSSICHLTNESDGHTTSLYGIGFGPFIITNKHLFRRNNGTLVVQSLHGVFKVKDTTTLQQHLVDGRDMIIIRMPKDFPPFPQKLKFREPQREERICLVTTNFQTKSMSSMVSDTSCTFPSGDGIFWKHWIQTKDGQCGSPLVSTRDGFIVGIHSASNFTNTNNYFTSVPKNFMELLTNQEAQQWVSGWRLNADSVLWGGHKVFMVKPEEPFQPVKEATQL

Variants of: B1
Experiment: raw area under fraction-flipped curve 0-4 h after induction (AUC4h, not background-subtracted), DNA-recorder readout of cleavage of the substrate (dimensionless); higher = more cleavage of the substrate by the protease variant
Settings: temperature: 34 °C; time window: 0-4 h after rhamnose induction
Procedure: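 In vivo DNA recorder in E. coli TOP10(DE3) ΔrhaA at 34 °C. Each TEVp single-site mutant (parent TEVp 0) is paired with a single-site variant of the 7-mer TEVs (canonical ENLYFQ|S). The substrate sits between flexible linkers in a Bxb1-sfGFP-TEVs-SsrA fusion, so cleavage stabilises Bxb1 and speeds flipping of a recombination array, read by NGS. The value is the raw area under the fraction-flipped curve over 0-4 h after rhamnose induction (AUC4h), with ≥20 reads per time point. It is not background-subtracted; inactive controls average about 0.047.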
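Further: Bxb1 expression induced with 0.2% (w/v) L-rhamnose at OD600 near 0.5, cultures sampled hourly, flipped fraction per protease–substrate barcode pair counted by paired-end Illumina sequencing.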

Variant | area with substrate ENLYFQA | area with substrate ENLYFQC | area with substrate ENLYFQD | area with substrate ENLYFQE | area with substrate ENLYFQG | area with substrate ENLYFQI | area with substrate ENLYFQK | area with substrate ENLYFQL | area with substrate ENLYFQM | area with substrate ENLYFQN | area with substrate ENLYFQQ | area with substrate ENLYFQR | area with substrate ENLYFQS | area with substrate ENLYFQT | area with substrate ENLYFQW | area with substrate ENLYFQF | area with substrate ENLYFQH | area with substrate ENLYFQP | area with substrate ENLYFQY | area with substrate ENLYFQV
MGESLFKGPRDYNPISSSICHLTNESDGHTTSLYGIGFGPFIITNKHLFRRNNGTLVVQSLHGVFKVKDTTTLQQHLVDGRDMIIIRMPKDFPPFPQKLKFREPQREERICLVTTNFQTKSMSSMVSDTSCTFPSGDGIFWKHWIQTKDGQCGSPLVSTRDGFIVGIHSASNFTNTNNYFTSVPKNFMELLTNQEAQQWVSGWRLNADCVLWGGHKVFMVKPEEPFQPVKEATQL [S209C] | 0.104 | 0.108 | 0.0729 | 0.0712 | 0.0577 | 0.0719 | 0.0208 | 0.069 | 0.0766 | 0.0819 | 0.0832 | 0.0693 | 0.0983 | 0.0104 | 0.0612 |  |  |  |  | 
MGESLFKGPRDYNPISSSICHLTNESDGHTTSLYGIGFGPFIITNKHLFRRNNGTLVVQSLHGVFKVKDTTTLQQHLVDGRDMIIIRMPKDFPPFPQKLKFREPQREERICLVTTAFQTKSMSSMVSDTSCTFPSGDGIFWKHWIQTKDGQCGSPLVSTRDGFIVGIHSASNFTNTNNYFTSVPKNFMELLTNQEAQQWVSGWRLNADSVLWGGHKVFMVKPEEPFQPVKEATQL [N116A] | 0.129 | 0.15 | 0.0665 |  |  | 0.0582 | 0.0586 | 0.0624 | 0.0697 | 0.0727 |  | 0.0737 | 0.1 | 0.058 |  | 0.0827 | 0.0712 | 0.0548 | 0.0725 | 
MGESLFKGPRDYNPISSSICHLTNESDGHTTSLYGIGFGPFIITNKHLFRRNNGTLVVQSLHGVFKVKDTFTLQQHLVDGRDMIIIRMPKDFPPFPQKLKFREPQREERICLVTTNFQTKSMSSMVSDTSCTFPSGDGIFWKHWIQTKDGQCGSPLVSTRDGFIVGIHSASNFTNTNNYFTSVPKNFMELLTNQEAQQWVSGWRLNADSVLWGGHKVFMVKPEEPFQPVKEATQL [T71F] | 0.0815 | 0.0828 | 0.0567 |  |  | 0.0512 | 0.0653 | 0.056 | 0.0829 | 0.062 | 0.0615 | 0.0589 | 0.0828 | 0.0597 | 0.0647 | 0.0562 |  | 0.0556 | 0.0544 | 
MGESLFKGPRDYNPISSSICHLTNESDGHTTSLYGIGFGPFIITNKHLFRRNNGTLVVQSLHGVFKVKDTATLQQHLVDGRDMIIIRMPKDFPPFPQKLKFREPQREERICLVTTNFQTKSMSSMVSDTSCTFPSGDGIFWKHWIQTKDGQCGSPLVSTRDGFIVGIHSASNFTNTNNYFTSVPKNFMELLTNQEAQQWVSGWRLNADSVLWGGHKVFMVKPEEPFQPVKEATQL [T71A] | 0.0912 | 0.108 | 0.0726 |  | 0.0794 | 0.0665 | 0.0498 | 0.0658 | 0.0877 | 0.0744 |  | 0.0704 | 0.0897 | 0.0602 | 0.0572 | 0.061 | 0.0777 | 0.063 |  | 
MGESLFKGPRDYNPISSSICHLTNESDGHTTSLYGIGFGPFIITNKHLFRRNNGTLVVQSLHGVFKVKDTTTLQQHLVDGRDMIIIRMPKDFPPFPQKLKFREPQREERICLVTTNFQTKSMSSMVSDTSCTFPSGDGIFWKHWIQTKDGQCGSPLVSTRDGFIVGIHSASNFTNTNNYFTSVPKNFMELLTNQEAQQWVSGWRLNADSVLWGGHKVFMVKPEEPFQPVKEATQM [L235M] | 0.0901 | 0.117 | 0.0624 | 0.0804 | 0.0864 | 0.0569 |  | 0.07 | 0.0765 | 0.0658 | 0.0736 | 0.0645 | 0.103 | 0.0589 | 0.0744 | 0.0869 | 0.074 |  | 0.0858 | 0.0546
MGESLFKGPRDYNPISSSICHLTKESDGHTTSLYGIGFGPFIITNKHLFRRNNGTLVVQSLHGVFKVKDTTTLQQHLVDGRDMIIIRMPKDFPPFPQKLKFREPQREERICLVTTNFQTKSMSSMVSDTSCTFPSGDGIFWKHWIQTKDGQCGSPLVSTRDGFIVGIHSASNFTNTNNYFTSVPKNFMELLTNQEAQQWVSGWRLNADSVLWGGHKVFMVKPEEPFQPVKEATQL [N24K] | 0.0055 | 0.0756 | 0.0597 | 0.0661 | 0.0631 |  | 0.0606 | 0.0561 | 0.0676 |  |  | 0.0581 | 0.0826 | 0.0581 | 0.0617 | 0.0534 | 0.0725 |  |  | 0.0523
MGESLFKGPRDYNPISSSICHLTNESDGHTTSLYGIGFGPFIITNKHLFRRNNGTLVVQSLHGVFKVKDTTTLQQHLVDGRDMIIIRMPKDFPPFPQKLKFREPQREERICLVTTNFQTKSMSSMVSDTSCTFPSGDGIFWKHWIQTKDGQCGSPLVSTRDGFIVGIHSASNFTNTNNYFTSVPKNFMVLLTNQEAQQWVSGWRLNADSVLWGGHKVFMVKPEEPFQPVKEATQL [E189V] | 0.0895 | 0.114 |  |  | 0.103 |  | 0.0678 | 0.0992 |  | 0.0766 |  | 0.0569 | 0.0962 | 0.0656 | 0.0682 |  |  | 0.0686 |  | 
MGESLFKGPRDYNPISSSICHLTNESDGHTTSLYGIGFVPFIITNKHLFRRNNGTLVVQSLHGVFKVKDTTTLQQHLVDGRDMIIIRMPKDFPPFPQKLKFREPQREERICLVTTNFQTKSMSSMVSDTSCTFPSGDGIFWKHWIQTKDGQCGSPLVSTRDGFIVGIHSASNFTNTNNYFTSVPKNFMELLTNQEAQQWVSGWRLNADSVLWGGHKVFMVKPEEPFQPVKEATQL [G39V] | 0.0434 | 0.0402 |  |  | 0.0517 | 0.0484 | 0.0509 | 0.0506 | 0.041 | 0.0442 |  | 0.0322 | 0.0426 | 0.0457 | 0.0466 | 0.0402 | 0.0434 | 0.054 | 0.0434 | 0.0343
